# Experimental data: PubChem BioAssay AID463173 (ICCB-Longwood Screening Facility, Harvard Medical School, 2010)
# In all, about 52,000 compounds went through this assay and about 1,700 (3.3%) were called active. Cut-off read from the data, not from the text of the source: active = survival mostly below about 52% (no sharp cut-off); inactive = mostly above about 56%. The list shows a part of the results.
# Tested on: Wild type
# Assay: growth inhibition of S. aureus wild type versus tarO mutant, primary screen, teichoic acid synthesis inhibitors, RN4220, OD600 (AID 463173)
# Conditions: S. aureus RN4220 wild type/DeltatarO growth, OD600, 18 h, active compounds read low, screened at 18.75 µg/mL (by protocol)
row,SMILES,survival
1,CC1CCc2c(sc(N)c2C(N)=O)C1 (stereo unspecified),inactive: 96%
2,Cc1ccc(S(=O)(=O)c2nnn3c2nc(NCc2ccc4c(c2)OCO4)c2sccc23)cc1C,inactive: 86%
3,CCc1ccc(NC(=O)CN2C(=O)c3cccc4cccc2c34)cc1,inactive: 103%
4,Cc1ccc2c(c1)c1c(c(=O)n(-c3ccccc3)c(=O)n1CC(=O)NCC1CCCO1)n2C (stereo unspecified),inactive: 72%
5,COc1ccc(C2(CC(=O)O)CCOC(C)(C)C2)cc1 (stereo unspecified),inactive: 100%
6,Cc1nc2ccccn2c(=O)c1NC(=O)c1ccc(F)c(F)c1,inactive: 80%
7,COc1cc(Cl)c(NC(=O)c2cc3ccccn3n2)c(OC)c1,inactive: 77%
8,Cc1cccc(NC(=O)C2CCCN2S(=O)(=O)c2ccc3nc(-c4ccccc4)[nH]c3c2)c1 (stereo unspecified),inactive: 42%
9,O=c1n(Cc2ccccc2Cl)c2ccccc2c2nc(-c3ccccc3)nn12,inactive: 86%
10,Cc1nn2c(=O)cc(COC(=O)c3ccc(NC(=O)COc4ccc(C)c(C)c4)cc3)nc2s1,inactive: 135%
11,CCCn1cnc2scc(-c3ccccc3)c2c1=O,inactive: 99%
12,Cc1ncc(CO)c2c1Oc1nc(-c3ccccc3Cl)nc(SCc3ccccc3F)c1C2,inactive: 84%
13,COCCCNC(=O)Cn1cnc2sc(C)c(S(=O)(=O)N3CCC(C)CC3)c2c1=O,inactive: 72%
14,COC(=O)C(C)Sc1ccc2nnc(CCNS(=O)(=O)c3ccc(C)cc3)n2n1 (stereo unspecified),inactive: 94%
15,COc1ccc2oc(=O)c(C(=O)Nc3ccc(O)cc3)cc2c1,inactive: 101%
16,Cc1ccc(C)c(NC(=O)n2ncc3cc(Cl)ccc32)c1,inactive: 83%
17,CN(C(=O)Cn1nnc2ccccc2c1=O)C1CCCCC1,inactive: 113%
18,CCOc1ccc(C2CC(=O)Nc3nc(SCc4ccccc4C)[nH]c(=O)c32)cc1OC (stereo unspecified),inactive: 113%
19,Cc1ccc(CCNC(=O)c2ccc3nc(N4CCC(C)CC4)sc3c2)cc1,inactive: 87%
20,CC(C)NC(=O)c1ccc(Cn2c(SCC(N)=O)nc3ccccc3c2=O)cc1,inactive: 74%
21,COc1ccc(C2CC(=O)N3CN(C4CCCCC4)CSC3=C2C#N)c(OC)c1 (stereo unspecified),inactive: 82%
22,COc1ccc2nc(N(Cc3cccnc3)C(C)=O)sc2c1,inactive: 68%
23,O=C(NCc1cccnc1)c1nn(-c2ccc(Cl)cc2)nc1CO,inactive: 87%

row,SMILES,survival
1,COc1cc(Cl)c(C)cc1Nc1nc2ccccc2c2nnc(C)n12,inactive: 130%
2,CCc1ccc(-n2c(=O)c3cccnc3n2CC(=O)NCc2ccccc2)cc1,inactive: 138%
3,COC(=O)c1cc2oc(C)cc2n1Cc1ccc(Br)cc1F,inactive: 48%
4,CCC(Oc1ccccc1-c1nnc(-c2ccccc2)o1)C(=O)Nc1ccc(C(C)=O)cc1 (stereo unspecified),inactive: 118%
5,CC1=C(C)C/S(=N\S(=O)(=O)c2ccc(Cl)cc2)N(S(=O)(=O)c2ccc(Cl)cc2)C1 (stereo unspecified),inactive: 114%
6,COC(=O)c1ccc(NC(=O)CSc2ccc(-c3sc(-c4ccccc4)nc3C)nn2)cc1,inactive: 61%
7,COc1ccc(Nc2ncc3c(n2)CCN(Cc2ccccc2C)C3)c(OC)c1,inactive: 90%
8,N#Cc1cccc(C(c2nnnn2Cc2ccccc2)N2CCCC2)c1 (stereo unspecified),inactive: 102%
9,O=C(NC1CC(=O)N(c2ccc(F)cc2)C1)c1ccco1 (stereo unspecified),inactive: 80%
10,COc1ccccc1C1CC(=O)NC(C)=C1C(=O)OC1CCCCCC1 (stereo unspecified),inactive: 84%
11,CC(=O)Nc1nc(-c2cccs2)nc2c1c(=O)oc1ccccc12,inactive: 99%
12,O=C(O)C1CCN(C(=O)c2ccc(-c3ccccc3)cc2)CC1,inactive: 116%
13,COc1cccc(OC)c1C(=O)N1CCNCC1,inactive: 97%
14,COC(=O)c1c(C)oc2ccc(N(C(=O)c3ccncc3)S(=O)(=O)c3ccc(OC)cc3)cc12,inactive: 84%
15,O=C(Nc1cccc(C(F)(F)F)c1)c1ccc2c(c1)nnn2C1CCCC1,inactive: 72%
16,CCc1ccc(-n2c(=O)c3c4c(sc3n(Cc3ccccc3C#N)c2=O)CCC4)cc1,inactive: 137%
17,O=C1CC(NCC2CCCCC2)C(=O)N1c1ccccc1 (stereo unspecified),inactive: 107%
18,COc1ccc(S(=O)(=O)NCCc2nnc3ccc(SCC(=O)Nc4ccccc4C)nn23)cc1,inactive: 114%
19,Cn1c(Cn2cnc3ccccc32)nnc1SCC(=O)CC(=O)Nc1ccccc1,inactive: 107%
20,COc1ccc(-c2nc3sc(CCNC(=O)c4ccco4)c(C)n3n2)cc1,inactive: 71%
21,CCS(=O)(=O)Nc1ccc(-c2cn3ccsc3n2)cc1,active: -1%
22,Cn1cc(CN(C(=O)Nc2ccccc2)C2CCCCC2)c2ccccc21,active: -1%
23,COc1cc2c(cc1OC)CN(C(=O)Nc1ccccc1)CC2,inactive: 83%
